# Data from the supplement of paper PMC12230231.
# ± gives the standard deviation of the averaged measurements. Restriction of a single-cycle SIVsab GFP reporter by TRIM5α v1-loop variants in CRFK cells. Human variants: read share among cells still uninfected after two challenges over input, higher = gained restriction. Rhesus variants: share among infected cells over input, higher = lost restriction. Reporter dose not given per row. No active / inactive call per row; the paper calls a change when both replicates lie above its controls (mean + 2 SD of stop or wild-type variants, or the top frameshift score). Residues outside the varied loop are taken from Swiss-Prot. The paper reads the human single-substitution scores as noise; they and the rhesus combinations repeat poorly (rank correlation 0.3 to 0.4), indel scores repeat only for the top variants, rhesus substitutions well (0.9).
# Test system: SIVsab (simian immunodeficiency virus of sabaeus monkeys), single-cycle GFP reporter, in CRFK cells
# Assay: enrichment among uninfected cells over input (fold); higher = stronger restriction
# Details: library: human / rhesus combinations
# Description: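 Pools of CRFK cells expressing variants of the TRIM5α v1 loop were challenged with the single-cycle reporter, sorted by GFP and sequenced; mean of two replicates.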
row,Sequence,enrichment
1,"MASGILVNVKEEVTCPICLELLTQPLSLDCGHSFCQACLTANHKKSMLDKGESSCPVCRISYQPENIRPNRHVANIVEKLREVKLSPEGQKVDHCARHGEKLLLFCQEDGKVICWLCERSQEHRGHHTFLTEEVAREYQVKLQAALEMLRQKQQEAEELEADIREEKASWKTQIQYDKTNVLADFEQLRDILDWEESNELQNLEKEEEDILKSLTNSETEMVQQTQSLRELISDLEHRLQGSVMELLQGVDGVIKRTENVTLKKPETFPKNQRRVFRAPDLKGMLEVFRELTDVRRYWVDVTVAPNNISCAVISEDKRQVSSPKPQIIYGARGTRYTFPTLTNFNYCTGILGSQSITSGKHYWEVDVSKKTAWILGVCAGFQPDAMCNIEKNENYQPKYGYWVIGLEEGVKCSAFQDSSFHTPSVPFIVPLSVIICPDRVGVFLDYEACTVSFFNITNHGFLIYKFSHCSFSQPVFPYLNPRKCGVPMTLCSPSS [human TRIM5α, 330-340 = GARGTRYTFPTLT]",0.324 ± 0.16
2,"MASGILVNVKEEVTCPICLELLTQPLSLDCGHSFCQACLTANHKKSMLDKGESSCPVCRISYQPENIRPNRHVANIVEKLREVKLSPEGQKVDHCARHGEKLLLFCQEDGKVICWLCERSQEHRGHHTFLTEEVAREYQVKLQAALEMLRQKQQEAEELEADIREEKASWKTQIQYDKTNVLADFEQLRDILDWEESNELQNLEKEEEDILKSLTNSETEMVQQTQSLRELISDLEHRLQGSVMELLQGVDGVIKRTENVTLKKPETFPKNQRRVFRAPDLKGMLEVFRELTDVRRYWVDVTVAPNNISCAVISEDKRQVSSPKPQIIYGARGTLFPTFVNFNYCTGILGSQSITSGKHYWEVDVSKKTAWILGVCAGFQPDAMCNIEKNENYQPKYGYWVIGLEEGVKCSAFQDSSFHTPSVPFIVPLSVIICPDRVGVFLDYEACTVSFFNITNHGFLIYKFSHCSFSQPVFPYLNPRKCGVPMTLCSPSS [human TRIM5α, 330-340 = GARGTLFPTFV]",0.00658 ± 0.0057
3,"MASGILVNVKEEVTCPICLELLTQPLSLDCGHSFCQACLTANHKKSMLDKGESSCPVCRISYQPENIRPNRHVANIVEKLREVKLSPEGQKVDHCARHGEKLLLFCQEDGKVICWLCERSQEHRGHHTFLTEEVAREYQVKLQAALEMLRQKQQEAEELEADIREEKASWKTQIQYDKTNVLADFEQLRDILDWEESNELQNLEKEEEDILKSLTNSETEMVQQTQSLRELISDLEHRLQGSVMELLQGVDGVIKRTENVTLKKPETFPKNQRRVFRAPDLKGMLEVFRELTDVRRYWVDVTVAPNNISCAVISEDKRQVSSPKPQIIYQARGTLYTFPSFVNFNYCTGILGSQSITSGKHYWEVDVSKKTAWILGVCAGFQPDAMCNIEKNENYQPKYGYWVIGLEEGVKCSAFQDSSFHTPSVPFIVPLSVIICPDRVGVFLDYEACTVSFFNITNHGFLIYKFSHCSFSQPVFPYLNPRKCGVPMTLCSPSS [human TRIM5α, 330-340 = QARGTLYTFPSFV]",1.15 ± 0.27
4,"MASGILVNVKEEVTCPICLELLTQPLSLDCGHSFCQACLTANHKKSMLDKGESSCPVCRISYQPENIRPNRHVANIVEKLREVKLSPEGQKVDHCARHGEKLLLFCQEDGKVICWLCERSQEHRGHHTFLTEEVAREYQVKLQAALEMLRQKQQEAEELEADIREEKASWKTQIQYDKTNVLADFEQLRDILDWEESNELQNLEKEEEDILKSLTNSETEMVQQTQSLRELISDLEHRLQGSVMELLQGVDGVIKRTENVTLKKPETFPKNQRRVFRAPDLKGMLEVFRELTDVRRYWVDVTVAPNNISCAVISEDKRQVSSPKPQIIYGARGTRFQSFTNFNYCTGILGSQSITSGKHYWEVDVSKKTAWILGVCAGFQPDAMCNIEKNENYQPKYGYWVIGLEEGVKCSAFQDSSFHTPSVPFIVPLSVIICPDRVGVFLDYEACTVSFFNITNHGFLIYKFSHCSFSQPVFPYLNPRKCGVPMTLCSPSS [human TRIM5α, 330-340 = GARGTRFQSFT]",0.0125 ± 0.014
5,"MASGILVNVKEEVTCPICLELLTQPLSLDCGHSFCQACLTANHKKSMLDKGESSCPVCRISYQPENIRPNRHVANIVEKLREVKLSPEGQKVDHCARHGEKLLLFCQEDGKVICWLCERSQEHRGHHTFLTEEVAREYQVKLQAALEMLRQKQQEAEELEADIREEKASWKTQIQYDKTNVLADFEQLRDILDWEESNELQNLEKEEEDILKSLTNSETEMVQQTQSLRELISDLEHRLQGSVMELLQGVDGVIKRTENVTLKKPETFPKNQRRVFRAPDLKGMLEVFRELTDVRRYWVDVTVAPNNISCAVISEDKRQVSSPKPQIIYQARGTLFQSLVNFNYCTGILGSQSITSGKHYWEVDVSKKTAWILGVCAGFQPDAMCNIEKNENYQPKYGYWVIGLEEGVKCSAFQDSSFHTPSVPFIVPLSVIICPDRVGVFLDYEACTVSFFNITNHGFLIYKFSHCSFSQPVFPYLNPRKCGVPMTLCSPSS [human TRIM5α, 330-340 = QARGTLFQSLV]",0.00222 ± 0.0015
6,"MASGILVNVKEEVTCPICLELLTQPLSLDCGHSFCQACLTANHKKSMLDKGESSCPVCRISYQPENIRPNRHVANIVEKLREVKLSPEGQKVDHCARHGEKLLLFCQEDGKVICWLCERSQEHRGHHTFLTEEVAREYQVKLQAALEMLRQKQQEAEELEADIREEKASWKTQIQYDKTNVLADFEQLRDILDWEESNELQNLEKEEEDILKSLTNSETEMVQQTQSLRELISDLEHRLQGSVMELLQGVDGVIKRTENVTLKKPETFPKNQRRVFRAPDLKGMLEVFRELTDVRRYWVDVTVAPNNISCAVISEDKRQVSSPKPQIIYQARGTRFTFQTFVNFNYCTGILGSQSITSGKHYWEVDVSKKTAWILGVCAGFQPDAMCNIEKNENYQPKYGYWVIGLEEGVKCSAFQDSSFHTPSVPFIVPLSVIICPDRVGVFLDYEACTVSFFNITNHGFLIYKFSHCSFSQPVFPYLNPRKCGVPMTLCSPSS [human TRIM5α, 330-340 = QARGTRFTFQTFV]",0.157 ± 0.024

# Same assay, conditions: library: insertions and deletions
row,Sequence,enrichment
1,"MASGILVNVKEEVTCPICLELLTQPLSLDCGHSFCQACLTANHKKSMLDKGESSCPVCRISYQPENIRPNRHVANIVEKLREVKLSPEGQKVDHCARHGEKLLLFCQEDGKVICWLCERSQEHRGHHTFLTEEVAREYQVKLQAALEMLRQKQQEAEELEADIREEKASWKTQIQYDKTNVLADFEQLRDILDWEESNELQNLEKEEEDILKSLTNSETEMVQQTQSLRELISDLEHRLQGSVMELLQGVDGVIKRTENVTLKKPETFPKNQRRVFRAPDLKGMLEVFRELTDVRRYWVDVTVAPNNISCAVISEDKRQVSSPKPQIIYGAGARGTRYQTFVNFNYCTGILGSQSITSGKHYWEVDVSKKTAWILGVCAGFQPDAMCNIEKNENYQPKYGYWVIGLEEGVKCSAFQDSSFHTPSVPFIVPLSVIICPDRVGVFLDYEACTVSFFNITNHGFLIYKFSHCSFSQPVFPYLNPRKCGVPMTLCSPSS [human TRIM5α, 2-codon duplication at 330]",0.369 ± 0.12
2,"MASGILVNVKEEVTCPICLELLTQPLSLDCGHSFCQACLTANHKKSMLDKGESSCPVCRISYQPENIRPNRHVANIVEKLREVKLSPEGQKVDHCARHGEKLLLFCQEDGKVICWLCERSQEHRGHHTFLTEEVAREYQVKLQAALEMLRQKQQEAEELEADIREEKASWKTQIQYDKTNVLADFEQLRDILDWEESNELQNLEKEEEDILKSLTNSETEMVQQTQSLRELISDLEHRLQGSVMELLQGVDGVIKRTENVTLKKPETFPKNQRRVFRAPDLKGMLEVFRELTDVRRYWVDVTVAPNNISCAVISEDKRQVSSPKPQIIYGARYGARGTRYQTFVNFNYCTGILGSQSITSGKHYWEVDVSKKTAWILGVCAGFQPDAMCNIEKNENYQPKYGYWVIGLEEGVKCSAFQDSSFHTPSVPFIVPLSVIICPDRVGVFLDYEACTVSFFNITNHGFLIYKFSHCSFSQPVFPYLNPRKCGVPMTLCSPSS [human TRIM5α, 4-codon duplication at 329]",0.606 ± 0.39
3,"MASGILVNVKEEVTCPICLELLTQPLSLDCGHSFCQACLTANHKKSMLDKGESSCPVCRISYQPENIRPNRHVANIVEKLREVKLSPEGQKVDHCARHGEKLLLFCQEDGKVICWLCERSQEHRGHHTFLTEEVAREYQVKLQAALEMLRQKQQEAEELEADIREEKASWKTQIQYDKTNVLADFEQLRDILDWEESNELQNLEKEEEDILKSLTNSETEMVQQTQSLRELISDLEHRLQGSVMELLQGVDGVIKRTENVTLKKPETFPKNQRRVFRAPDLKGMLEVFRELTDVRRYWVDVTVAPNNISCAVISEDKRQVSSPKPQIIYGARGTRYQRYQTFVNFNYCTGILGSQSITSGKHYWEVDVSKKTAWILGVCAGFQPDAMCNIEKNENYQPKYGYWVIGLEEGVKCSAFQDSSFHTPSVPFIVPLSVIICPDRVGVFLDYEACTVSFFNITNHGFLIYKFSHCSFSQPVFPYLNPRKCGVPMTLCSPSS [human TRIM5α, 3-codon duplication at 335]",0.726 ± 0.059
4,"MASGILVNVKEEVTCPICLELLTQPLSLDCGHSFCQACLTANHKKSMLDKGESSCPVCRISYQPENIRPNRHVANIVEKLREVKLSPEGQKVDHCARHGEKLLLFCQEDGKVICWLCERSQEHRGHHTFLTEEVAREYQVKLQAALEMLRQKQQEAEELEADIREEKASWKTQIQYDKTNVLADFEQLRDILDWEESNELQNLEKEEEDILKSLTNSETEMVQQTQSLRELISDLEHRLQGSVMELLQGVDGVIKRTENVTLKKPETFPKNQRRVFRAPDLKGMLEVFRELTDVRRYWVDVTVAPNNISCAVISEDKRQVSSPKPQIIYGARGTRYQTRYQTFVNFNYCTGILGSQSITSGKHYWEVDVSKKTAWILGVCAGFQPDAMCNIEKNENYQPKYGYWVIGLEEGVKCSAFQDSSFHTPSVPFIVPLSVIICPDRVGVFLDYEACTVSFFNITNHGFLIYKFSHCSFSQPVFPYLNPRKCGVPMTLCSPSS [human TRIM5α, 4-codon duplication at 335]",0.302 ± 0.42
5,"MASGILVNVKEEVTCPICLELLTQPLSLDCGHSFCQACLTANHKKSMLDKGESSCPVCRISYQPENIRPNRHVANIVEKLREVKLSPEGQKVDHCARHGEKLLLFCQEDGKVICWLCERSQEHRGHHTFLTEEVAREYQVKLQAALEMLRQKQQEAEELEADIREEKASWKTQIQYDKTNVLADFEQLRDILDWEESNELQNLEKEEEDILKSLTNSETEMVQQTQSLRELISDLEHRLQGSVMELLQGVDGVIKRTENVTLKKPETFPKNQRRVFRAPDLKGMLEVFRELTDVRRYWVDVTVAPNNISCAVISEDKRQVSSPKPQIIYGARGTRYQTFVNFNSITSGKHYWEVDVSKKTAWILGVCAGFQPDAMCNIEKNENYQPKYGYWVIGLEEGVKCSAFQDSSFHTPSVPFIVPLSVIICPDRVGVFLDYEACTVSFFNITNHGFLIYKFSHCSFSQPVFPYLNPRKCGVPMTLCSPSS [human TRIM5α, 9-codon deletion at 344]",2.11 ± 2.1
6,"MASGILVNVKEEVTCPICLELLTQPLSLDCGHSFCQACLTANHKKSMLDKGESSCPVCRISYQPENIRPNRHVANIVEKLREVKLSPEGQKVDHCARHGEKLLLFCQEDGKVICWLCERSQEHRGHHTFLTEEVAREYQVKLQAALEMLRQKQQEAEELEADIREEKASWKTQIQYDKTNVLADFEQLRDILDWEESNELQNLEKEEEDILKSLTNSETEMVQQTQSLRELISDLEHRLQGSVMELLQGVDGVIKRTENVTLKKPETFPKNQRRVFRAPDLKGMLEVFRELTDVRRYWVDVTVAPNNISCAVISEDKRQVSSPKPQIIYGARGTRYQTFVNFQTFVNFNYCTGILGSQSITSGKHYWEVDVSKKTAWILGVCAGFQPDAMCNIEKNENYQPKYGYWVIGLEEGVKCSAFQDSSFHTPSVPFIVPLSVIICPDRVGVFLDYEACTVSFFNITNHGFLIYKFSHCSFSQPVFPYLNPRKCGVPMTLCSPSS [human TRIM5α, 6-codon duplication at 337]",1.03 ± 0.8
